Consider 44 sequences from the supplement of paper PMC11417369.

The other results are listed elsewhere or left out.

This experiment concerns PfHDP1 homeodomain (GST-tagged). The experiment in a line: gcPBM binding intensity (ln(normalized median fluorescence intensity)); higher = stronger DNA binding. In a few lines: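 GST-fused DNA-binding domains of P. falciparum, expressed in E. coli, were applied at about 25 μg on average for 1 h to an Agilent 4 × 180k array of primer-extended double-stranded 36-bp intergenic genomic probes and negative controls. Binding intensity is the highest Masliner-normalised natural-log median intensity across replicate spots of either probe orientation, measured with Alexa488 anti-GST antibody and a 488 nm scan.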
As for “ATATATATATATATATGTACATATGTATATTTTTTT [XGTACX_site1299]”, the “gcPBM binding intensity (ln)” value was 9.15.
Then “AAAATTATAATAATATGTACTTAAAAAATTTATATA [XGTACX_site632]”, with 6.07.
For “TATATATATATATGTGCATGTTCCCCATGCTTCCAT [TGCATGCA_site366]”, the “gcPBM binding intensity (ln)” value was determined as 9.5.
As for “TATATGTATTTATATACACACATATTCTTTTGACAC [CACACA_site1206]”, the “gcPBM binding intensity (ln)” value was determined as 6.67.
On to “AATATATATATATATAGTACATATTTTTATTCATTA [XGTACX_site2156]”, for which the “gcPBM binding intensity (ln)” value is 6.24.
With “ATATATATTTTTTAAACACACACATAAATATTTGTG [CACACA_site8936]”, the “gcPBM binding intensity (ln)” value was 6.94.
The same measure for “AATACACAAATATATTGTACATATATATATATATAT [XGTACX_site2440]”: 9.24; for “CATATATAAATATAAATATATATATATATATATATG [XGTACX_negctrl_site493]”: 7.09.
Then “ACTTATTATTAATATTGTACTCTTGAAAATTGTGGA [XGTACX_site6315]”, with 6.26; and “TAATATATGAGAAATTGTACAGAAAGGAATATGCTT [XGTACX_site5300]”, with 6.67.
“TTACAAATGGTTTACACACACATAATTGTATCAATT [CACACA_site4167]”: the “gcPBM binding intensity (ln)” value stood at 6.72.
Then “AAGAAATATTTATACACACACACAAACATATATATA [CACACA_site1912]”, with 7.01; and “ATATTATTGTAGAAATGTACATATATATATATATAT [XGTACX_site1882]”, with 9.24; and “TATATATGTTCAATATGTACATATATATAAGTGTAT [XGTACX_site5157]”, with 6.64.
The same measure for “CAAAAGTATAATAATACACACACTTTAAAAGTTAAA [CACACA_site3343]”: 6.53; for TAGATTCTTGAATAAGTGCAAAATATAATATTTATT: 9.28.
The same measure for “AAAAATAAAATAAAATAAAATAAACATACCATATGT [CACACA_negctrl_site594]”: 6.34; for “TTTTTATTTTTGTAGTGTACTTTATTTTTTTTGTTT [XGTACX_site8887]”: 6.77; for “TTTAAACAAGGATCCACACACCCCAAAAAAAAAAGA [CACACA_site680]”: 7.34.
For the sequence “CTGTATTCATAATTCACACAAATGGTTTATATGAAT [CACACA_site4315]”, the “gcPBM binding intensity (ln)” value stood at 6.44.
For the sequence “TATATATATATATACACACACACACCCATATATATA [CACACA_site2538]”, the “gcPBM binding intensity (ln)” value came to 9.27.
The same measure for “CATATTTGCACTTTCACACATAAATATATAACTATA [CACACA_site6016]”: 10.3; for “CATACATACAGATATACACACATATATAATAATATA [CACACA_site5477]”: 6.89; for “ATATATATTTATTTATGTACGAATAAATTTACGAAT [XGTACX_site5190]”: 6.49.
For the sequence “AATATCATTATATAAGTGCATTTTTTAAAAGATAAA [GTGCAC_site9479]”, the “gcPBM binding intensity (ln)” value was 8.09.
The same measure for “TTAATAGGTCGAAGTAGTACATAAAAATATATATAT [XGTACX_site5960]”: 7.81; for “ATATATATATATCATAGTACACATATGTGTCTCGTG [XGTACX_site774]”: 8.84.
Consider “TTGTTATAGAAGCATTCACACACACCCATACATACA [CACACA_site8414]”, for which the “gcPBM binding intensity (ln)” value is 6.96.
With “AAGTTAACAATATGAAGTACAAATGAAAAAAAAAAA [XGTACX_site666]”, the “gcPBM binding intensity (ln)” value amounted to 6.58.
The same measure for “TTTTTTTTTTTGTATCGTACATTTATAATGTTTATA [XGTACX_site6804]”: 6.47.
For “CATACACAAGAAAATTCACACACACCCATATATATA [CACACA_site9288]”, the “gcPBM binding intensity (ln)” value was determined as 6.91.
The same measure for “TCTTACAAAAAACAAACAGAGAAAAATATAAGGAAA [XGTACX_negctrl_site520]”: 6.79; for “AACATACAGAAACACACACACACACCCACACCCACA [CACACA_site493]”: 6.59.
The same measure for “TTTTTTTCATATAACACACACACAAAAATAATGTGG [CACACA_site3688]”: 6.7; for “TAAACATTGTAAAGGAGTACAAAATTTTTTTTATGA [XGTACX_site7757]”: 6.27; for “AATAATAAAAAATACACACACATATATATATATTAC [CACACA_site3464]”: 6.82.
Then “GGAAACACGATATATACACACATATTTATATTTATA [CACACA_site6250]”, with 6.68; and “AGAAAAGGAAAATAAACATGCAAAAATAATATTAAA [TGCATGCA_site337]”, with 6.75; and “ATGTTGTTATAAAGAGTGCAACGTATATGTATCCTT [GTGCAC_site9935]”, with 7.25.
Regarding “TCCAAATAAATATATTGTACAGAATTATTGATACCT [XGTACX_site327]”, the “gcPBM binding intensity (ln)” value turned out to be 6.24.
The same measure for “TGTAATAATTATTGCACGCACACAAAAACCTATAGA [CACACA_site2932]”: 10.2; for “TAAGGTTCATTAAAGTGTACACATAAATACCGTAAC [XGTACX_site8212]”: 6.83; for “ATTCTGAATGTTATGCGTACATATTAATCCTATTTA [XGTACX_site1216]”: 6.45.
“AAGTAAATATAATAAGGTACACATAAATAAATAAAT [XGTACX_site1740]”: the “gcPBM binding intensity (ln)” value is 6.72.
